Experimental data published in a compilation of properties of binary mixtures (doi:10.1016/j.molliq.2021.116463).
The densities may have been worked out from excess volumes.

Test: xn = mol fraction of the nth substance listed
Conditions: 100 kPa

[Cl-].c1c[nH+]c[nH]1 + OCC(O)CO
mass density [kg/m3]
Conditions | 293.2 K | 303.2 K | 313.2 K | 323.2 K | 333.2 K | 343.2 K | 353.2 K
x1 = 0.1667 | 1266.6 | 1260.7 | – | 1248.7 | 1242.6 | 1236.4 | 1230.3
x1 = 0.25 | 1267.9 | 1262.1 | 1256.2 | – | 1244.3 | 1238.4 | 1232.5
x1 = 0.3333 | 1270.8 | 1265.1 | – | – | 1247.4 | 1241.5 | 1235.6
x1 = 0.5 | 1277.3 | 1269.3 | 1261.3 | 1255.3 | – | – | 1237.8
